# According to paper PMC4336329 (PLoS ONE, 2015):
# The campaign covered roughly 310,000 compounds. About 2,200 (0.71%) showed an effect of 50% or more. Effects have a minus sign here. This is one part of the list.
# Biological target: human ether-à-go-go-related gene (hERG) potassium channel (human, UniProt Q12809)
# Assay: primary screen, population patch clamp on CHO cells stably expressing hERG
# Sequence of human ether-à-go-go-related gene (hERG) potassium channel (Q12809 whole entry, looked up): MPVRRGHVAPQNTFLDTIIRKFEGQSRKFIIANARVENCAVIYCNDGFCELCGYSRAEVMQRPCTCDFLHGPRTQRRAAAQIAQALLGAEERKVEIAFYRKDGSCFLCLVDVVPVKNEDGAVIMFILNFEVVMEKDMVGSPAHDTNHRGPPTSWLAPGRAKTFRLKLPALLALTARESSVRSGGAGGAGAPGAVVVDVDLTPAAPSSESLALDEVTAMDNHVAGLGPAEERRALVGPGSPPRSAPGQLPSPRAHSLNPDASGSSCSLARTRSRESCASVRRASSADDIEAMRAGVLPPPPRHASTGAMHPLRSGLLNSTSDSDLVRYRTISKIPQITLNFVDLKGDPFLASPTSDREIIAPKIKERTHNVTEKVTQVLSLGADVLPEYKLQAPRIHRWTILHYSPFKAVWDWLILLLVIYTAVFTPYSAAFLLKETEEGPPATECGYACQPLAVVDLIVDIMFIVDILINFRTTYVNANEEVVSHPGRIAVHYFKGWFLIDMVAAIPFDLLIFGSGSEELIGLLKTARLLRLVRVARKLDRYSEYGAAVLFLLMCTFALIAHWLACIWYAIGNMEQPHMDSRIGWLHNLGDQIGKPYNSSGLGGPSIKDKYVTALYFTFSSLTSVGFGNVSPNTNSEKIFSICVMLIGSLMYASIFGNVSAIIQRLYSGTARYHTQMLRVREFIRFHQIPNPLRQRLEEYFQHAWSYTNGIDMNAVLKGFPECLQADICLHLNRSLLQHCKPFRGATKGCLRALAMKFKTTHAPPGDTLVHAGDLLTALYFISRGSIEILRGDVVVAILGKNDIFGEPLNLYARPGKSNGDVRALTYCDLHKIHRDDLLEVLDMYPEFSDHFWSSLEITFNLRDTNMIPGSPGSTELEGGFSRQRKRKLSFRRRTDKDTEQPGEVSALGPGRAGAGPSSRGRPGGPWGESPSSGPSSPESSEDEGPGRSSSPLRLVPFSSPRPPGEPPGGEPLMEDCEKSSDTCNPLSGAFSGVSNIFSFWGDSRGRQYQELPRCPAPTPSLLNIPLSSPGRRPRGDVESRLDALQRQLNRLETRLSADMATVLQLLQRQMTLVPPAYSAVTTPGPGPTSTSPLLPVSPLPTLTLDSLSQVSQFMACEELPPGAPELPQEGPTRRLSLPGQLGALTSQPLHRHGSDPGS
row,SMILES,"hERG current change (%, negative = inhibition) at 1uM [%]"
1,COc1ccc(CNCc2cc3c(C(C)(C)C)nn(-c4ccccc4)c3[nH]c2=O)cc1,13
2,COc1c(C)cc(C(=O)C2CCCN(C(=O)c3snnc3C)C2)cc1C (stereo not shown),1.3
3,Cc1onc(-c2ccccc2)c1C(=O)Nc1sc2c(c1C#N)CCC(C)C2 (stereo not shown),6.72
4,COc1cccc(CN(C)C(=O)C2CCN(S(=O)(=O)c3cccs3)CC2)c1OC,6.6
5,Cc1onc(-c2c(Cl)cccc2Cl)c1C(=O)NCCc1ccc(S(N)(=O)=O)cc1,6.51
6,CCOC(=O)C1CCN(S(=O)(=O)C(F)(F)c2nc3ccccc3s2)CC1,3.95
7,CC1(/[N+]([O-])=C/c2cccc(Cl)c2)CCCCC1=O (stereo not shown),13.5
8,COc1cc(/C=C2\CC(C(C)(C)C)C/C(=C\c3cc(OC)c(OC)c(OC)c3)C2=O)cc(OC)c1OC (stereo not shown),11.4
9,CN(CCOC(=O)c1ccc2c(c1)OCCO2)Cc1ccccc1.Cl,-3.38
10,CCOC(=O)CCCNC(=O)COC(=O)CCC(=O)c1ccc(F)cc1,11.6
11,Fc1ccc([C@@H]2CCNC[C@H]2COc2ccc3c(c2)OCO3)cc1.O=C(O)/C=C\C(=O)O,-7.27
12,Cc1cc(OCc2nc3ccccc3s2)ccc1N,10.2
13,CN(Cc1ccccc1)S(=O)(=O)c1ccc2c(c1)OCCO2,8.86
14,CCCOc1ccc(Oc2cc(C)nc(SC)n2)nn1,18.4
15,O=C(NCc1cccnc1)c1cccnc1-c1nc2ccccc2s1,1.85
16,Cc1ccc(C(=O)NC=C(Cl)Cl)cc1,14.6
17,CCN(C(=O)CSc1nc(N)cc(N)n1)C1CCS(=O)(=O)C1 (stereo not shown),7.31
18,CCC(CC)C(=O)Nc1cccc(C(=O)Nc2nnc(C)s2)c1,9.33
19,Fc1ccc(NC(=S)Nc2ccccc2Cl)cc1,6.51
20,C/C(CC(=O)Nc1ccc(Cl)cc1)=N\NC(=O)C(=O)N1CCCCC1,8.4
21,C[C@H](NC(=O)OC(C)(C)C)c1nnc(SCC(=O)Nc2cccc(Cl)c2)o1,14.1
22,Cc1ccc(/C=C2\SC(=S)N(CCC(=O)N3CCCCC3)C2=O)cc1,9.65
23,CCOC(=O)c1sc(N(C)C(C)=O)nc1C,15.2

row,SMILES,"hERG current change (%, negative = inhibition) at 1uM [%]"
1,COC(=O)c1ccncc1C(=O)Nc1ccc(OC)cc1,17.3
2,O=C(N1CCN(c2ccccn2)CC1)N1c2ccccc2Sc2ccccc21,11.6
3,CCC(CC)C(=O)OCC(=O)Nc1ccc(S(=O)(=O)N2CCOCC2)cc1OC,4.38
4,CC(C)C(=O)Nc1ccc(NC(=O)c2ccc([N+](=O)[O-])cc2Cl)cc1,8.68
5,O=C(OCC(=O)c1cccs1)c1ccc(NC(=O)c2ccco2)cc1,6.35
6,CCC(C)C(NC(=O)C1CCC(C)CC1)C(=O)Nc1ccc(OC)cc1OC (stereo not shown),2.41
7,O=C(O)c1ccc2c(=O)n3c(nc2c1)/C(=C/c1ccccc1OC(F)F)CC3,15
8,Brc1ccc2c(c1)C(c1cccs1)=NNC(c1cccnc1)=N2,-4.3
9,Cn1c(Br)nc2c1c(=O)n(Cc1ccccc1)c(=O)n2C,10.7
10,CC1(C)Cc2c(cnn2-c2ccc(F)cc2)C(NC(=O)Cn2cncn2)C1 (stereo not shown),7.94
11,CCOC(=O)c1c(S(=O)(=O)Nc2ccc(C)c(F)c2)c(C)n(C)c1C,-2.18
12,CCOc1ccccc1CNc1ncnc2ccc(-c3c(C)noc3C)cc12,10.4
13,CCn1nc(NC(=O)C(C)C)c2cc3ccc(C)cc3nc21,13.6
14,COc1ccccc1NC(=S)N1CCCCCC1,9.07
15,N#Cc1ccc(COn2nnc3ccccc32)cc1,3.72
16,Clc1ccccc1OCc1nnc(-c2ccccc2)o1,8.46
17,C=CCN=c1scc(C)n1/N=C/c1ccc(O)c(O)c1,9.35
18,CC1CCN(C(=O)CSc2nnc(-c3ccc(S(=O)(=O)N4CCOCC4)cc3)n2C)CC1,8.1
19,CC(C)(C)c1nn(-c2ccccc2)c2nc(Cl)c(C=O)cc12,16.1
20,COC(=O)c1cc(C(O)(C(=O)OC)C(F)(F)F)c(/N=C/N(C)C)s1 (stereo not shown),9.37
21,COc1ncccc1-c1nnn(-c2ccccc2)n1,7.69
22,CCCCOC(=O)c1ccc(N/C(=N\S(=O)(=O)c2ccccc2)c2ccccc2)cc1,6.06
23,Cn1c(Cn2nnc3ccccc32)nnc1SCC(=O)N1c2ccccc2CCc2ccccc21,3.84
